Target: T1, soluble EGFR-Fc protein
T1 construct: Captured on a plate coated with an anti-human antibody; also called soluble EGFR protein; EGFR protein
Assay: ELISA on captured EGFR-Fc (FIG. 11a)

B1: biotinylated thioredoxin/mature human TGFα fusion protein (ligand)
chain: not shown
modifications: biotinylated (Biotin Protein Labeling Kit, Roche Diagnostics); sites not stated
notes: also called TrxTGFA; biotinylated TrxTGFA
- binding result: binds
